Source: patent US5659055A, “Cytoprotective fatty moiety compounds” (Virginia Commonwealth University, priority 1995, dated 1997)
Where two headings read alike, the source gives them in different places.

What was measured:
[1] = test system: PLA2 activities derived from human platelets and human polymorphonuclear leucocytes (PMNs)
[2] = test system: Ca++-dependent PLA2s; details: 10 μM
[3] = test system: PLA2 activities derived from human platelets and human polymorphonuclear leucocytes (PMNs); details: to approximately the same extent; cited from earlier work

| SMILES | inhibition of in vitro PLA2 activity [3] | further results |
| --- | --- | --- |
| CCCCC[C@H](O)/C=C/C1=C(CCCCCCC(=O)O)C(=O)CC1 [PGB1, prostaglandin B1] | – | less inhibitory than the precursor arachidonic acid [1]: at least 2 orders of magnitude; PLA2 inhibitory activity [2]: not inhibitory |
| CCCCC/C=C\C/C=C\C/C=C\C/C=C\CCCC(=O)O [arachidonic acid] | inhibited | – |
| CCCCC/C=C\C/C=C\CCCCCCCC(=O)O [linoleic acid] | inhibited | – |
| CCCCCCCC/C=C\CCCCCCCC(=O)O [oleic acid] | inhibited | – |
| CCCCCC[C@@H](O)C/C=C\CCCCCCCC(=O)O [ricinoleic acid] | – | inhibition of in vitro PLA2 activity ([1]; 12-hydroxylation of oleic acid): eliminates the inhibitory activity |
